# From the supplement of paper PMC12217912
# Some of the results follow. Sequences were assembled here from the parent chain. Inactive controls read about 0.05.
# B1: TEV protease; numbered along this chain (parent)
# chain: MGESLFKGPRDYNPISSSICHLTNESDGHTTSLYGIGFGPFIITNKHLFRRNNGTLVVQSLHGVFKVKDTTTLQQHLVDGRDMIIIRMPKDFPPFPQKLKFREPQREERICLVTTNFQTKSMSSMVSDTSCTFPSGDGIFWKHWIQTKDGQCGSPLVSTRDGFIVGIHSASNFTNTNNYFTSVPKNFMELLTNQEAQQWVSGWRLNADSVLWGGHKVFMVKPEEPFQPVKEATQL
# Variants of: B1
# Test: raw area under fraction-flipped curve 0-4 h after induction (AUC4h, not background-subtracted), DNA-recorder readout of cleavage of the substrate (dimensionless); higher = more cleavage of the substrate by the protease variant
# Settings: temperature: 34 °C; time window: 0-4 h after rhamnose induction
# 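Also: Bxb1 expression induced with 0.2% (w/v) L-rhamnose at OD600 near 0.5, cultures sampled hourly, flipped fraction per protease–substrate barcode pair counted by paired-end Illumina sequencing.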
Variant,area with substrate HNLYFQS,area with substrate KNLYFQS,area with substrate INLYFQS,area with substrate NNLYFQS,area with substrate SNLYFQS,area with substrate TNLYFQS,area with substrate WNLYFQS,area with substrate YNLYFQS,area with substrate PNLYFQS,area with substrate QNLYFQS
MGESLFKGPRDYNPISSSICHLTNESDGHTTSLYGIGFGPFIITNKHLFRRNNGTLVVQSLHGVFKVKDTTTLQQHLVDGRDMIIIRMPKDFPPFPRKLKFREPQREERICLVTTNFQTKSMSSMVSDTSCTFPSGDGIFWKHWIQTKDGQCGSPLVSTRDGFIVGIHSASNFTNTNNYFTSVPKNFMELLTNQEAQQWVSGWRLNADSVLWGGHKVFMVKPEEPFQPVKEATQL [Q97R],0.0628,0.0588,,,,,,,,
MGESLFKGPRDYNPISSSICHLTNESDGHTTSLYGIGFGPFIITNKHLFRRNNGTLVVQSLHGVFKVKDTTTLQQHLVDGRDMIIIRMPKDFPPFPQKLKFREPQREERICLVTTNFQTKSMSSMVSDTSCTFPSGDGIFWKHWIQTKDGQCGSPLVSVRDGFIVGIHSASNFTNTNNYFTSVPKNFMELLTNQEAQQWVSGWRLNADSVLWGGHKVFMVKPEEPFQPVKEATQL [T159V],0.0719,,0.0793,0.0596,0.0629,0.0696,,,,
MGESLFKGPRDYNPISSSICHLTNESDGHTTSLYGIGFGPFIITNKHLFRRNNGTLVVQSLHGVFKVKDTTTLQQHLVDGRDMIIIRMPKDFPPFPQKLKFREPQREETICLVTTNFQTKSMSSMVSDTSCTFPSGDGIFWKHWIQTKDGQCGSPLVSTRDGFIVGIHSASNFTNTNNYFTSVPKNFMELLTNQEAQQWVSGWRLNADSVLWGGHKVFMVKPEEPFQPVKEATQL [R109T],,0.0755,0.0628,0.0663,,0.0519,0.0537,0.0589,,
MGESLFKGPRDYNPISSSICHLTNESDGHTTSLYGIGFGPFIITNKHLFRRNNGTLVVQSLHGVFKVKDTTTLQQHLVDGRDMIIIRMPKDFPPFPQKLKFREPQREEYICLVTTNFQTKSMSSMVSDTSCTFPSGDGIFWKHWIQTKDGQCGSPLVSTRDGFIVGIHSASNFTNTNNYFTSVPKNFMELLTNQEAQQWVSGWRLNADSVLWGGHKVFMVKPEEPFQPVKEATQL [R109Y],,0.061,0.0615,0.0664,,,,,,
MGESLFKGPRDYNPISSSICHLTNESDGHTTSLYGIGFGPFIITNKHLFRRNNGTLVVQSLHGVFKVKDTTTLQQHLVDGRDMIIIRMPKDFPPFPQKLKFREPQREERICLVTTNFQTKSMSSMVSDTSCTFPSGDGIFWKHWIQTKDGQCGSPLVSTRDGFIVGIHSASNFTNTNNYFTSVPKNFMELLTNQEAQQWVSGWRYNADSVLWGGHKVFMVKPEEPFQPVKEATQL [L205Y],,,0.0708,,0.0772,0.0489,0.0561,0.0572,0.0539,0.0642
MGESLFKGPRDYNPISSSICHLTNESDGHTTSLYGIGFGPFIITNKHLFRRNNGTLVVQSLHGVFKVKDTTTLQQHLVDGRDMIIIRMPKDFPPFPQKLKFREPQREERICLVNTNFQTKSMSSMVSDTSCTFPSGDGIFWKHWIQTKDGQCGSPLVSTRDGFIVGIHSASNFTNTNNYFTSVPKNFMELLTNQEAQQWVSGWRLNADSVLWGGHKVFMVKPEEPFQPVKEATQL [T114N],0.0864,,,0.0835,0.0678,,0.0744,,,
MGESLFKGPRDYNPISSSICHLTNESDGHTTSLYGIGFGPFIITNKHLFRRNNGTLVVQSLHGVFKVKDTTTLQQHLVDGRDMIIIRMPKDFKPFPQKLKFREPQREERICLVTTNFQTKSMSSMVSDTSCTFPSGDGIFWKHWIQTKDGQCGSPLVSTRDGFIVGIHSASNFTNTNNYFTSVPKNFMELLTNQEAQQWVSGWRLNADSVLWGGHKVFMVKPEEPFQPVKEATQL [P93K],0.0653,,,,,,,,,
MGESLFKGPRDYNPISSSICHLTNESDGHTTSLYGIGFGPFIITNKHLFRRNNGTLVVQSLHGVFKVKDTTTLQQHLVDGRDMIIIRMPKDFLPFPQKLKFREPQREERICLVTTNFQTKSMSSMVSDTSCTFPSGDGIFWKHWIQTKDGQCGSPLVSTRDGFIVGIHSASNFTNTNNYFTSVPKNFMELLTNQEAQQWVSGWRLNADSVLWGGHKVFMVKPEEPFQPVKEATQL [P93L],,,0.0235,,,,,0.033,,
MGESLFHGPRDYNPISSSICHLTNESDGHTTSLYGIGFGPFIITNKHLFRRNNGTLVVQSLHGVFKVKDTTTLQQHLVDGRDMIIIRMPKDFPPFPQKLKFREPQREERICLVTTNFQTKSMSSMVSDTSCTFPSGDGIFWKHWIQTKDGQCGSPLVSTRDGFIVGIHSASNFTNTNNYFTSVPKNFMELLTNQEAQQWVSGWRLNADSVLWGGHKVFMVKPEEPFQPVKEATQL [K7H],,,0.0899,,0.0141,0.0953,,,,
MGESLFKGPRDYNPISSSICHLTNESDGHTTSLYGIGFGPFIITNKHLFRRNNGTLVVQSLHGVFKVKDTTTLQQHLVDGRDMIIIRMPKDFPPFPQKLKFREPQREERICLVTTNFQTKSMSSMVSDTSCTFPSGDGIFWKHWIQTKDGQCGSPLVSTRDGFIVGIHSASNFTNTNNYFTSVPKNFMELLTNQEAQQWVSGWRLNADSVLWGGHKVFMVKPEEPFQPVKEATQC [L235C],0.0649,,0.0672,0.0536,0.0673,,,0.0619,0.0643,
MGESLFKGPRDYNPISSSICHLTNESDGHTTSLYGIGFGPFIITNKHLFRRNNGTLVVQSLHGVFKVKDTTTLQQHLVQGRDMIIIRMPKDFPPFPQKLKFREPQREERICLVTTNFQTKSMSSMVSDTSCTFPSGDGIFWKHWIQTKDGQCGSPLVSTRDGFIVGIHSASNFTNTNNYFTSVPKNFMELLTNQEAQQWVSGWRLNADSVLWGGHKVFMVKPEEPFQPVKEATQL [D79Q],,,0.0592,,,,0.0643,,,
MGESLFKGPRDYNPISSSICHLTNESDGHTTSLYGIGFGPFIITNKHLFRRNNGTLVVQSLHGVFKVKDTTTLQQHLVEGRDMIIIRMPKDFPPFPQKLKFREPQREERICLVTTNFQTKSMSSMVSDTSCTFPSGDGIFWKHWIQTKDGQCGSPLVSTRDGFIVGIHSASNFTNTNNYFTSVPKNFMELLTNQEAQQWVSGWRLNADSVLWGGHKVFMVKPEEPFQPVKEATQL [D79E],,,0.0488,0.0494,,,0.0618,,,

# Same assay, conditions: temperature: 34 °C; time window: 0-4 h after rhamnose induction
Variant,area with substrate VNLYFQS,area with substrate LNLYFQS,area with substrate MNLYFQS,area with substrate RNLYFQS
MGESLFKGPRDYNPISSSICHLTNESDGHTTSLYGIGFGPFIITNKHLFRRNNGTLVVQSLHGVFKVKDTTTLQQHLVDGRDMIIIRMPKDFPPFPQKLKFREPQREERICLVTTNFQTKSMSSMVSDTSCTFPSGDGIFWKHWIQTKDGQCGSPLVSTRDGFIVGIHSASNFTNTNNYFTSVPKNFMELLTNQEAQQWVSGWRYNADSVLWGGHKVFMVKPEEPFQPVKEATQL [L205Y],0.071,,,
MGESLFKGPRDYNPISSSICHLTNESDGHTTSLYGIGFGPFIITNKHLFRRNNGTLVVQSLHGVFKVKDTTTLQQHLVDGRDMIIIRMPKDFPPFPQKLKFREPQREERICLVNTNFQTKSMSSMVSDTSCTFPSGDGIFWKHWIQTKDGQCGSPLVSTRDGFIVGIHSASNFTNTNNYFTSVPKNFMELLTNQEAQQWVSGWRLNADSVLWGGHKVFMVKPEEPFQPVKEATQL [T114N],0.0746,0.0659,0.0997,
MGESLFKGPRDYNPISSSICHLTNESDGHTTSLYGIGFGPFIITNKHLFRRNNGTLVVQSLHGVFKVKDTTTLQQHLVDGRDMIIIRMPKDFPPFPQKLKFREPQREERICLVTTNFQTKSMSSMVSDTSCTFPSGDGIFWKHWIQTKDGQCGSPLVSTRDGFIVGIHSASNFTNTNNYFTSVPKNFMELLTNQEAQQWVSGWRLNADSVLWGGHKVFMVKPEEPFQPVKEATQC [L235C],0.0668,,,
MGESLFKGPRDYNPISSSICHLTNESDGHTTSLYGIGFGPFIITNKHLFRRNNGTLVVQSLHGVFKVKDTTTLQQHLVQGRDMIIIRMPKDFPPFPQKLKFREPQREERICLVTTNFQTKSMSSMVSDTSCTFPSGDGIFWKHWIQTKDGQCGSPLVSTRDGFIVGIHSASNFTNTNNYFTSVPKNFMELLTNQEAQQWVSGWRLNADSVLWGGHKVFMVKPEEPFQPVKEATQL [D79Q],,0.0641,,
MGESLFKGPRDYNPISSSICHLTNESDGHTTSLYGIGFGPFIITNKHLFRRNNGTLVVQSLHGVFKVKDTTTLQQHLVEGRDMIIIRMPKDFPPFPQKLKFREPQREERICLVTTNFQTKSMSSMVSDTSCTFPSGDGIFWKHWIQTKDGQCGSPLVSTRDGFIVGIHSASNFTNTNNYFTSVPKNFMELLTNQEAQQWVSGWRLNADSVLWGGHKVFMVKPEEPFQPVKEATQL [D79E],,,,0.0424
